Source: patent US20230159653A1

Biological target: ADAM17 (UniProt P78536)
Assay: BLI (Octet Red96, 25 C), antibody captured on anti-human Fab-CH1 (FAB2G) biosensor, antigen in solution

B1: D8.P1.C1 (Fab, V domains shown)
VH: [here about 100 residues without letters]GGSMDVWGQGTLVTVSS
VL: QSVLTQPPSASGTPGQRVTISCSGSSSNIGSNYVYWYQQLPGTAPKLLIYRNNQRPSGVPDRFSGSKSGTSASLAISGLRPEDEADYYCAVWDDRLSGVVFGGGTKLTVLG
Question: How did the Kd turn out when B1 was run?
Answer: 3.1 nM

Question: And the koff?
Answer: 0.0011 s⁻¹

Question: What about the kon of the same binder?
Answer: 370000 M⁻¹ s⁻¹
